Source: PubChem BioAssay AID1508624 (National Center for Advancing Translational Sciences (NCATS), 2021)
Among all 48,000 compounds or so, about 120 (0.25%) were called active. Inconclusive results (about 4%) are left out. Calls follow the shape of the dose curve; as a rule, active = well fitted activation curve with a large enough effect; inconclusive = small, poorly fitted or top-dose-only effect, or another doubt; inactive = no such curve, though single readings can be large or run the other way. This is one part of the list.

Assay: Primary qHTS for Identification of Small Molecule Activators of Huntingtin-Antisense Promoter Activity; also: nearly all actives have a fitted effect of over 55% in size
Settings: HEK293 HTT-AS promoter firefly luciferase reporter, 24 h; series mostly up to 57.5 µM; activity change, positive = activation: at the top concentration
In short: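 Firefly luciferase signal from promoter-reporter HEK293 cells was scaled between vehicle (0%) and zero RLU (-100%). Compounds were tested at final concentrations of up to 57.5 uM over 24 h at 37 degrees C. PTC124 at 50 uM final served as control inhibitor.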

Compound	activity change, positive = activation
CCn1c(=O)n(-c2ccc(F)cc2)c(=O)c2sc3ccccc3c21	inactive: -1.82%
CC(C)(C)OC(=O)N1CCC(c2c(C(=O)N3CCN(c4ccccc4)CC3)cnn2-c2ccccc2)CC1	inactive: -8.84%
CCOC(=O)c1c(Nc2ccc(F)cc2)nnc(-c2ccccc2)c1-c1ccccc1	inactive: -30.8%
CC(=O)N1CCC2(CC1)OC(=O)C(C)=C2C(=O)Nc1cc(C)ccc1C	inactive: -11.3%
O=C(c1ccccc1Cl)N(Cc1ccco1)c1ccccn1	inactive: -19.5%
Cc1cc(Br)ccc1NC(=O)Cn1cnc2sc(C)c(S(=O)(=O)N3CCN(C)CC3)c2c1=O	inactive: 15%
COC(=O)c1sc2cccc(F)c2c1S(=O)(=O)Nc1ccc(N(C)C)cc1	inactive: -19.6%
CC1=C(C(=O)NCc2cccc(Br)c2)C2(CCCCC2)OC1=O	inactive: -24.4%
CCCCOC(=O)/C(C#N)=C/c1ccc(-c2cccc(C(F)(F)F)c2)o1	inactive: -2.78%
CCOc1ccc(-c2nonc2NC(=O)c2ccco2)cc1	inactive: -24.8%
CCOc1ccc(NC(=O)CSc2nc3c(oc4ccccc43)c(=O)n2-c2cc(C)cc(C)c2)cc1	inactive: -8.55%
COc1cc(/C=C/c2nc(C#N)c(N3CCCCC3)o2)cc(OC)c1OC	inactive: -14.1%
Cc1ccc(C(=O)Nc2c(-c3ccccc3)nc3ccccn23)cc1	inactive: -9.43%
Cc1nnc(N2CCC(C(=O)Nc3ccc(F)cc3)CC2)c2nn(-c3ccc(Cl)cc3)c(C)c12	inactive: -24.9%
Cc1ccc(C2c3[nH]c4ccccc4c3CCN2C(=O)c2ccccc2Br)cc1 (centres undefined)	inactive: -33.9%
Cc1nn(-c2ccc(F)cc2)c(-n2cccc2)c1C(=O)N1CCN(c2ccccc2)CC1	inactive: -22.6%
CCOc1ccc(Cn2nnc(C(=O)Nc3cccc(SC)c3)c2N)cc1	inactive: 6.13%
CCCN(CCC)C(=O)Cn1c(=O)n(-c2ccc(C)c(C)c2)c(=O)c2c3c(sc21)CCCCC3	inactive: -6.6%
CC1CCC(NC(=O)CCc2cn(Cc3ccccc3Cl)c3ccccc23)CC1 (centres undefined)	inactive: -25.7%
Cc1ncc(CO)c2c1Oc1nc(-c3ccc(F)cc3)nc(SCC(=O)N3CCCCC3)c1C2	inactive: -11.5%
Cc1ccc(CN2C(=O)N(c3ccc(F)cc3)C(=O)C2CC(=O)Nc2ccc(Cl)cc2)cc1 (centres undefined)	inactive: -50%
Cc1ccc(NC(=O)CSc2nnc(-c3cc4occc4n3C)n2-c2ccccc2C)c(Cl)c1	inactive: -10.3%
Cc1ccc(C)c(Cn2c3ccccc3c3cnn(CC(=O)NC4CCC(C)CC4)c(=O)c32)c1 (centres undefined)	inactive: 16.9%
O=C(NCCc1ccccc1)C1CCN(c2ncnc3c2nc2n3CCCCC2)CC1	inactive: 8.51%
COc1ccc(NC(=O)CSC2=Nc3ccccc3C3=NC(CCC(=O)NCc4cccs4)C(=O)N23)cc1 (centres undefined)	inactive: -20.9%

Compound	activity change, positive = activation
COc1ccccc1NC(=O)CCn1nc(-c2ccccc2OC)c2c(C)cc(C)nc21	inactive: -31.5%
Cc1ccccc1NC(=O)Nc1nnc(N2CCCCCC2)s1	inactive: -8.83%
CCC(=O)N1CCc2cc(Br)cc(S(=O)(=O)CCC(=O)N3CCN(c4ccc(F)cc4)CC3)c21	inactive: 5.84%
Cc1ccccc1OCC(=O)OCc1cc(=O)n2nc(C3CC3)sc2n1	inactive: 4.99%
Cc1cc(C)c(C)c(OCC(=O)Nc2ccc(S(=O)(=O)Nc3nc(C)cc(C)n3)cc2)c1	inactive: 3.61%
O=C(CSC1=Nc2ccccc2N=C(c2ccc(F)cc2)C1)Nc1cccc(C(F)(F)F)c1	inactive: -41.1%
COc1ccccc1OCC(O)COC(N)=O (centres undefined)	inactive
CCOC(=O)C1CCCN(C(=O)C2CCN(S(=O)(=O)c3c(C)noc3/C=C/c3ccccc3F)CC2)C1 (centres undefined)	inactive: 16.2%
COc1ccc(CC(=O)NCCc2sc3nc(-c4ccc(OC)cc4)nn3c2C)cc1	inactive: -0.345%
Cc1cccc(-c2noc(CN(C3CCCCC3)S(=O)(=O)c3ccc(F)cc3)n2)c1	inactive: -17%
CCC(C(=O)OCc1cc(=O)n2nc(C)sc2n1)c1ccccc1 (centres undefined)	inactive: -17.7%
COc1ccc2c(c1)-c1nc(NC(=O)c3ccc(OC)c(Br)c3)sc1CC2	inactive: -9.84%
COc1ccc(OC)c(NC(=O)c2c(NCc3sccc3C)sc3c2CCCCC3)c1	inactive: 8.13%
COc1ccc(CNC(=O)CN(c2ccc(C(C)C)cc2)S(=O)(=O)c2c(C)nn(C)c2C)cc1	inactive: -23.3%
COc1ccc(NC(=O)CSc2nc3ccccc3nc2N2CCC(C)CC2)cc1	inactive: -16.5%
Nc1c2c(nc3ccccc13)CCCC2O (centres undefined)	inactive: -1.48%
CN(C)C(=O)Oc1ccc[n+](C)c1	inactive: 1.65%
COc1ccc2c(Sc3ccc(C)cc3)c(C(=O)NCc3ccc(F)cc3)[nH]c2c1	inactive: 16.4%
COc1ccccc1NC(=O)C1=C(C)Nc2nc(CCCO)nn2C1c1cccc(O)c1 (centres undefined)	inactive: -11.8%
Nc1ccn([C@@H]2CS[C@H](CO)O2)c(=O)n1	inactive: -7.13% [at 116 µM, percent change from vehicle, -100% = no light]
Cc1ccc(S(=O)(=O)N2CCCc3cc(NS(=O)(=O)c4cc(F)ccc4F)ccc32)cc1	inactive: -52.3%
O=C(CCCn1c(=O)c2ccccc2n(Cc2cccc(Cl)c2)c1=O)NCCc1ccc(Cl)cc1	inactive: -33.5%
O=C(Nc1cccc(NC(=O)c2ccccc2F)c1)c1ccccc1	inactive: -2.48%
O=C(Cn1cc(S(=O)(=O)N2CCCC2)c(S(=O)(=O)N2CCCC2)c1)Nc1ccccc1	inactive: -5.09%
